The text below walks through data of the supplement of paper PMC11417369.

This is one part of the list.

This experiment has as its system PfHDP1 homeodomain (GST-tagged). The experiment in a line: gcPBM binding intensity (ln(normalized median fluorescence intensity)); higher = stronger DNA binding. An outline of the steps: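 After 1 h on an Agilent 4 × 180k array of primer-extended double-stranded 36-bp intergenic genomic probes and negative controls, bound GST-tagged P. falciparum DNA-binding domains were detected with Alexa488 anti-GST antibody and scanned at 488 nm. The domains had been expressed in E. coli, and binding took place in 1× PBS with 1% milk, 0.2 mg/ml BSA, 0.5% salmon testes DNA and 0.03% Triton X-100. Binding intensity is the highest Masliner-normalised natural-log median intensity across replicate spots of either probe orientation.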
Take “TTTTGATTAAGTGAATTTTTTTATTTATATAAATAT [TGCATGCA_negctrl_site479]”: the “gcPBM binding intensity (ln)” value worked out at 6.25.

Regarding “AAAAATTAAATGTACACACACCTTAAACAATGTCAT [CACACA_site6958]”, the “gcPBM binding intensity (ln)” value stood at 6.25. To “AAATACTGATTTGGTTGTACATGTGCACTATATAAC [XGTACX_site3795]” belongs 9.12; to “ATAAATATATTTATATGTACATATAATTTTACATAT [XGTACX_site5440]”, 6.73; to “TATAATCTAACATAATGTACATGTATATGCACTTTA [XGTACX_site369]”, 8.43.

“ATATATATATCTAATTGTACATATTTTATAAATAAG [XGTACX_site4840]”: the “gcPBM binding intensity (ln)” value amounted to 8.15. To “AAAAAAAAAAAAAAATGTACCCATAAAATAAGCATT [XGTACX_site8576]” belongs 6.42; to “TATATTATATATATATGTACATATGGCAAAACATTA [XGTACX_site7958]”, 7.12; to “AATCACAACGAACACACACACAAAAAAAAAAAAAAA [CACACA_site6790]”, 6.42.

Take “TTTTTTACAATTAACACACTCAAAAATAATATTAAA [CACACA_site5198]”: the “gcPBM binding intensity (ln)” value is 6.45. The same measure for “AATTTTTTAAATGTGTGTACATATTATTTAAATAAT [XGTACX_site5967]”: 6.5; for “CAAAATTTTTATAAGTCACACATTATCTAAGCTTAT [CACACA_site5747]”: 6.08. As to “GTATATAATTTTTTATGTACTAAATTATATGTTTTT [XGTACX_site4907]”, the “gcPBM binding intensity (ln)” value was found to be 6.11. Take “ATCTATTTGTAAAGGGTGCGCATATCAATAAAAAAT [GTGCAC_site9503]”: the “gcPBM binding intensity (ln)” value was 7.32.

On to “AATAAATAAATAAATTAATAAATTAATAAATTAATA [GTGCAC_negctrl_site37]”, for which the “gcPBM binding intensity (ln)” value is 5.81. Take “CACACAAAGGAATATACACACATATTTATATTTATA [CACACA_site7841]”: the “gcPBM binding intensity (ln)” value is 6.54. For the sequence “ATAAAAAAAAAAAAAAAATATATATATATATATATA [XGTACX_negctrl_site424]”, the “gcPBM binding intensity (ln)” value is 9.42. As to “TTTTAGGTCTGAATGTGTACTAAATAATATAAGTAT [XGTACX_site6554]”, the “gcPBM binding intensity (ln)” value stood at 6.42. Regarding “TGTAATAACGTTATAAAAAGTATAAAAAAAAAAAAA [CACACA_negctrl_site943]”, the “gcPBM binding intensity (ln)” value came out at 6.2. To “TTATTTTTATTATTTTGTATATATATTTATAGAAAA [XGTACX_negctrl_site465]” belongs 6.45; to “TATATACTTTTTAATCACACTTCTTTAAAAAAAGTA [CACACA_negctrl_site1380]”, 6.45. To “TACCTAATATGTTATACACACATTAGAAGTACATAT [CACACA_site5375]” belongs 6.65; to “ATTATCTTATGTTATTTATTTGTCCCACATTTGTTA [TGCATGCA_negctrl_site402]”, 6.89; to “CATACACCCAGACACACACACATATATATATATATA [CACACA_site634]”, 9.29. The same measure for TTTTTGTTATTATGTGTGCACATATATATATATATA: 10.4; for “AACAAATATCCCAAAAGTACACATATAAAAAAAAAA [XGTACX_site4126]”: 6.77; for “TATGTTATTATTTGTACACACACATATATATCCTTG [CACACA_site5910]”: 6.99. In the case of “TTTATGTGTATGTTTACACACATAAAAAAATATATG [CACACA_site3039]”, the “gcPBM binding intensity (ln)” value was determined as 6.54. The same measure for “TATACCTTTGCGTGTGCATGCGCTTATATATATTTT [TGCATGCA_site152]”: 9.59.

Consider “TATTTTTAATATTTTGCATGCAGTATTTTATAAAAT [TGCATGCA_site250]”, for which the “gcPBM binding intensity (ln)” value worked out at 7.07.

Take “ACAATTCCCGTATGATGTACTTTTTTCCACTTTTTC [XGTACX_site1811]”: the “gcPBM binding intensity (ln)” value worked out at 6.56.

Turning to “TACTAACATAAAGACACACACCACATAAAATAAATA [CACACA_site7663]”, the “gcPBM binding intensity (ln)” value is 6.82.

On to CTTATTTTGTTATAAGTGCATTTTTTAAAATTTCTT, for which the “gcPBM binding intensity (ln)” value came out at 8.33. For “TATGAACACAGACACACACACAAAAAAAAAAAAAAA [CACACA_site7037]”, the “gcPBM binding intensity (ln)” value turned out to be 6.49.

In the case of “GGAAGAAAACTTAGGTGTACATATAAAACGATATAA [XGTACX_site3118]”, the “gcPBM binding intensity (ln)” value came to 6.72.

On to “ATAGTATACAGACACACACACACACCGATATATATA [CACACA_site8511]”, for which the “gcPBM binding intensity (ln)” value is 6.92. To “TAACTAAGGAATAATACACACAGAAATATATATTTA [CACACA_site344]” belongs 6.78. “ACATTATGCCATAAATGTACACATACATATACACAG [XGTACX_site1330]”: the “gcPBM binding intensity (ln)” value is 6.66. “GATGATGTTACTTAAGTGCATATAAATTATATTTTA [GTGCAC_site9940]”: the “gcPBM binding intensity (ln)” value was determined as 8.68. With “TAAAGTTTTTTTTTAACACACACATAATAAAATAAA [CACACA_site8042]”, the “gcPBM binding intensity (ln)” value was found to be 6.71.

Consider “AAATATATTATAAATTGTACGTTTATATATATTATT [XGTACX_site5110]”, for which the “gcPBM binding intensity (ln)” value was 6.21. On to “GACACATATAAATATTAACACACATAATGAATTATA [CACACA_site8881]”, for which the “gcPBM binding intensity (ln)” value turned out to be 6.57. To “TTTATTTATATAATTACACACATATATACGCAAATG [CACACA_site2794]” belongs 7.05. The same measure for “AAAGTATAGATGTATACACACACCAAACGTTAAAAA [CACACA_site3081]”: 6.93; for “TTTTATTCATTAATTTGTACTTATCCTTTTGCTTAA [XGTACX_site1243]”: 6.3; for “TCATTAATTAAATCTTGTACATATTCATATATATAT [XGTACX_site2241]”: 8.17.

As for “GTGTTCTTGTTATACACACACATATTTATATTTATA [CACACA_site6615]”, the “gcPBM binding intensity (ln)” value was found to be 7.11. To “TAGTATCAATCTTATACATGCATAAAATAATTATAA [TGCATGCA_site1052]” belongs 6.53; to “AAAAAAAAAAAAAAAACACACACAAATTTAATATAT [CACACA_site8492]”, 6.58; to “AAAATTAAAGTAAGGACACACATATATAATACATAT [CACACA_site823]”, 6.85.

For the sequence “TACACCAAAAAAAAACGTACAAAATCCCACCCAGAC [XGTACX_site4622]”, the “gcPBM binding intensity (ln)” value came out at 7.17.

In the case of “TATATATATAACAACACACACAGATCATAAAACTGC [CACACA_site2161]”, the “gcPBM binding intensity (ln)” value was 7.35. To “AAAAAAAAAAAAAACACACACAAATTTAATATATAT [CACACA_site1695]” belongs 6.64; to “TCCCAAGGAGTAGGCACACATAAAATATTATACATA [CACACA_site717]”, 6.42; to “TATATTTATTTTAACACACACATATATATATTATAT [CACACA_site4729]”, 6.69. As for “TTATGTATTCATAACACATGCAAATAGGATCATATA [TGCATGCA_site731]”, the “gcPBM binding intensity (ln)” value was 6.74. The same measure for “CGTTAGAGGGCTTTATCACACATGAAAAAAAAAAAA [CACACA_site5155]”: 6.2.
